± gives the standard deviation of the averaged measurements. Whole data set: some 33,000 sequences, median “E-score (dimensionless, -0.5 to 0.5)” near -0.046, cut for the highest 2% near 0.36. The list shows a part of the results.
Tested on: T1, SpTbr T-box DNA-binding domain (GST fusion)
T1 sequence: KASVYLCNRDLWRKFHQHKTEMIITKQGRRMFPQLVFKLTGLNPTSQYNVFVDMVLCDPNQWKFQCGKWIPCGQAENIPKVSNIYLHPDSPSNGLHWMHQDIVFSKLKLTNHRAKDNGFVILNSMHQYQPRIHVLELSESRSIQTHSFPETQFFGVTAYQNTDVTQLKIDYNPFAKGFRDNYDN
Assay: PBM E-score of 8-mer (E-score (dimensionless, -0.5 to 0.5)); Tbr is Tbrain of the sea star Patiria miniata (Pm) or the sea urchin Strongylocentrotus purpuratus (Sp); higher = stronger binding preference; most listed sequences are background and not binding sites
Details: the construct has about 5 more residues each side
Procedure: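 Universal protein-binding microarray (Agilent AMADID 016060, 60-bp probes with a 35-bp variable region) incubated with 200 nM GST-fused Strongylocentrotus purpuratus Tbr T-box DNA-binding domain (residues 362-554) in PBS pH 7.5. Scored for every ungapped 8-mer (given with its reverse complement) as E-score (range -0.5 to 0.5; >0.45 counts as bound) and Z-score of median probe intensity. Two replicate arrays (datasets 1 and 2).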
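Further: protein at 200 nM in PBS on universal double-stranded arrays.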

In order of falling “PBM E-score of 8-mer” value:
1. GACACCCC  0.405 ± 0.026
2. CGAAGTGA  0.362 ± 0.0065
3. CATGTCAC  0.253 ± 0.025
4. ACAAGTGA  0.243 ± 0.07
5. CCGGTCAC  0.229 ± 0.016
6. ACTGTTAG  0.195 ± 0.048
7. GGCGCCCA  0.164 ± 0.077
8. ATGCGAAG  0.1525 ± 0.0015
9. CACTAACC  0.15 ± 0.026
10. GAAAATAC  0.148 ± 0.053
11. AACAGATC  0.137 ± 0.015
12. AGGTTGCA  0.134 ± 0.019
13. CGCTGATC  0.132 ± 0.11
14. CGCCGAGC  0.132 ± 0.025
15. GCTGCTAA  0.11 ± 0.006
16. CCAACGGA  0.107 ± 0.0063
17. AACGAATG  0.0939 ± 0.036
18. GTGACCTA  0.0756 ± 0.073
19. ACGCGCCC  0.0742 ± 0.031
20. ACGTTCGG  0.0713 ± 0.038
21. CGTGGTAG  0.0558 ± 0.012
22. AGCGCGCC  0.0478 ± 0.066
23. AGAAACTC  0.0439 ± 0.00099
24. CGTAGACA  0.0296 ± 0.012
25. AAATCGAA  0.0241 ± 0.066
26. AACGATCT  0.0231 ± 0.0018
27. CTAAATGC  0.0157 ± 0.022
28. GAGGTTAC  0.00103 ± 0.04
29. GTTGGCTA  -0.00618 ± 0.0014
30. CGTGCAAC  -0.0122 ± 0.11
31. GCACGAGC  -0.0218 ± 0.058
32. CCTTGTGC  -0.0284 ± 0.0089
33. ACCATCGG  -0.0356 ± 0.079
34. ACCGCGTA  -0.0401 ± 0.0057
35. CTTTTCAA  -0.0414 ± 0.11
36. AGCGCACT  -0.0424 ± 0.0093
37. GCTACTCA  -0.0431 ± 0.035
38. CCGTAAAG  -0.0479 ± 0.033
39. CAAAGAGC  -0.0512 ± 0.053
40. AAGACGAT  -0.0524 ± 0.029
41. AAATCATG  -0.0529 ± 0.011
42. CCTTGTAC  -0.0571 ± 0.037
43. AGGCTTAT  -0.0619 ± 0.046
44. CCAGGAGG  -0.0654 ± 0.055
45. CGGGGTTC  -0.0775 ± 0.057
46. AATCGATG  -0.0812 ± 0.0092
47. CAACAGAA  -0.0866 ± 0.099
48. CAAATACG  -0.087 ± 0.022
49. GATGGTTA  -0.0918 ± 0.008
50. AAAGGTAC  -0.0923 ± 0.05
51. ATTCAGCA  -0.107 ± 0.013
52. ATACTGAG  -0.115 ± 0.039
53. GCATAGAC  -0.117 ± 0.083
54. ATCCGAGG  -0.1176 ± 0.0009
55. CAGTATAC  -0.121 ± 0.049
56. TAATCAGA  -0.122 ± 0.018
57. AGTCTACC  -0.125 ± 0.026
58. ATGAGCAA  -0.127 ± 0.037
59. CCATTATC  -0.129 ± 0.12
60. ATTAGAAG  -0.13 ± 0.0082
61. TCCCCCGA  -0.133 ± 0.033
62. CAGACAAG  -0.134 ± 0.015
63. TGCCCCAA  -0.137 ± 0.02
64. AATACAGG  -0.138 ± 0.0047
65. CCCCATAC  -0.141 ± 0.035
66. GGGTTACC  -0.148 ± 0.034
67. CCAGTCCG  -0.15 ± 0.011
68. AGTTTTGG  -0.158 ± 0.012
69. AAATCCGA  -0.16 ± 0.08
70. ATAGCCTA  -0.17 ± 0.033
71. CTCAACTC  -0.174 ± 0.013
72. CTGGTGGA  -0.174 ± 0.014
73. AGCTCAGG  -0.176 ± 0.0068
74. ATACAGGA  -0.176 ± 0.0052
75. AGGACAGC  -0.18 ± 0.027
76. GCTCCGCC  -0.183 ± 0.058
77. GTCTTAGA  -0.195 ± 0.054
78. ATAACGGA  -0.197 ± 0.07
79. GGGGGAAA  -0.205 ± 0.097
80. GGAGCCCC  -0.206 ± 0.022
81. AGAAACAT  -0.207 ± 0.026
82. AGGGACCA  -0.237 ± 0.064
83. CCAAAATA  -0.241 ± 0.017
84. AAAGGGAA  -0.252 ± 0.016
85. CAGGCCAG  -0.257 ± 0.02
86. GCGTACTA  -0.354 ± 0.026

— the supplement of paper PMC4166925
